Values joined by “and” are separate entries in the source; they are usually repeats but may differ in a detail not shown here. Equal entries are not always repeated. Among all 110,000 compounds or so, about 230 (0.21%) showed an effect of 50% or more. The list shows a part of the results.
molecular target: DPAP1 (Plasmodium falciparum, UniProt Q8IIJ9); assay: primary screen, percent inhibition; read by cleavage of a fluorogenic dipeptide substrate; higher = more effect of the substance; set-up: species or system P. falciparum D10 trophozoite lysates; single well
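Note: 30 min substrate incubation versus DMSO and 10 µM JCP410 controls.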

Chain of DPAP1 (Q8IIJ9 whole entry, looked up): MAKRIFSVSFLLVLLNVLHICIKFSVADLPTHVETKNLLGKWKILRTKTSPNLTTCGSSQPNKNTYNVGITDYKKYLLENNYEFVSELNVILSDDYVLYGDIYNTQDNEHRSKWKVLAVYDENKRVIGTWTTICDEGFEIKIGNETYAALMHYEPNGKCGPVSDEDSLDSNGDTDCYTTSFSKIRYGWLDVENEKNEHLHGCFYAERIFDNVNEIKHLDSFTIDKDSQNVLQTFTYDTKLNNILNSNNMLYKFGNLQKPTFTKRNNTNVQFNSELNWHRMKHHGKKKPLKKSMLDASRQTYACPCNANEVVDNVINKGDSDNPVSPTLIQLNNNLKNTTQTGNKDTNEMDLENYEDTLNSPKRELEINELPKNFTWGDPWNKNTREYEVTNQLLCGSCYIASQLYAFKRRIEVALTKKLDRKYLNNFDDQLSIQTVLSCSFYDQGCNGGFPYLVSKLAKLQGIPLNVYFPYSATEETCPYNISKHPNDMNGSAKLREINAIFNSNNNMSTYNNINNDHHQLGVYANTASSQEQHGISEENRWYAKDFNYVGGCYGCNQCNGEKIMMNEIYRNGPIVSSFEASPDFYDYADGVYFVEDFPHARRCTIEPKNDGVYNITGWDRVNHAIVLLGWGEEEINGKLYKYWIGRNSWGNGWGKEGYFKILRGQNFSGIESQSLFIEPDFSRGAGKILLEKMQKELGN

| Compound | % Inhibition @ 10 uM |
| --- | --- |
| COc1cccc2cc(-c3nc4cc(C(=O)O)ccc4[nH]3)c(=O)oc12 | 2.97% |
| Cc1ccc(Oc2cc(-n3ccc(C)n3)ncn2)cc1 | 1.35% and 1.88% |
| O=C(NCc1nc(-c2ccccc2)no1)C12CC3CC(CC(C3)C1)C2 | -6.72% |
| COc1ccc(C)c2sc(N(CCN(C)C)C(=O)COc3ccccc3)nc12 | 7.69% |
| Cc1ccc(-c2nc(-n3c(C)c4c(C)nnc(C)c4c3C)sc2C)cc1C | 0.778% |
| COc1cccc(NC(=O)c2sc3nc4c(cc3c2N)CCCC4)c1 | -1.89% |
| Cc1cccc(C(=O)Nc2nc3ccc(C)cc3s2)c1 | 2.26% |
| COc1cccc(N(CC(=O)Nc2cccc(Br)c2)S(C)(=O)=O)c1 | 3.17% |
| Cc1cccc(NC(=O)C2COc3ccccc3O2)c1C (stereo not drawn) | -0.28% |
| CC(=O)c1ccc2c(c1)OCCOCCOCCO2 | 0.0974% |
| COc1cccc2c(Nc3ccccc3C)cc(C)nc12 | -2.99% |
| C=CCc1cccc(/C=N/c2cccn3cc(-c4ccccc4)nc23)c1O | -1.17% |
| CC(C)c1nnc(N2C(=O)c3oc4ccccc4c(=O)c3C2c2cccs2)s1 (stereo not drawn) | -1.86% |
| Cc1ccc(N2C(=O)/C(=C/c3ccccc3)N=C2NC(C)(C)C)cc1 | 4.27% |
| COc1ccc(CNC(=O)c2noc3c2CCc2ccccc2-3)cc1 | -3.77% |
| O=C(CSc1nnc2c(n1)[nH]c1ccccc12)Nc1nc2c(s1)CCCC2 | 34.6% |
| CC(=O)c1cccc(NC(=O)C2C3CCC(C3)C2C(=O)O)c1 (stereo not drawn) | 3.1% |
| Cn1cccc1Cc1nnc(SCC(=O)NCC2CCCO2)n1C (stereo not drawn) | -4.94% |
| COC(=O)C1=CNC=C(C(=O)OC)C1c1ccc(C(=O)OC)cc1 | -3.04% |
| CC(C)C[C@H](NC(=O)c1nc(-c2ccccc2)c(-c2ccccc2)s1)C(=O)NCC#N | -3.48% |
| COCCCNC(=O)c1cc2c(=O)n3cc(C)ccc3nc2n(CCN2CCOCC2)c1=N | -5.14% |
| CC(=O)Nc1ccc(S(=O)(=O)N2CCN(c3cccc(Cl)c3)CC2)cc1 | 32.8% |
| CC(=O)NCCCc1nc2ccccc2n1Cc1c(F)cccc1Cl | 3.41% |
| COc1ccc(CCNC(=O)C(NS(=O)(=O)c2cccc3nsnc23)C(C)C)cc1OC (stereo not drawn) | -0.465% |
| CCN(CC)CCOC(=O)c1ccc(NC)cc1 | 3.06% |
| C/C(Cl)=C/CSc1nc2c(c(=O)[nH]c(=O)n2C)n1Cc1ccc(Cl)cc1 | -0.864% |

| Compound | % Inhibition @ 10 uM |
| --- | --- |
| COc1cc(CN(C(=S)NCC(=O)NCCc2ccccc2)C2CCCC2)cc(OC)c1OC | -0.406% |
| OCCC#CCN1CCCCC1c1cccnc1 (stereo not drawn) | -1.69% |
| O=C(CCNS(=O)(=O)c1ccc(Br)s1)NCCc1ccc(Cl)cc1 | 6.29% |
| O=C1NC(=S)N(c2ccccc2)C(=O)/C1=C\c1ccc[nH]1 | 5.31% |
| CCc1nn(C(CC)C(=O)NCCc2ccc(OC)cc2OC)c(=O)c2cc3occc3n12 (stereo not drawn) | -3.79% |
| CCOC(=O)N1CCN(C(=O)c2cc(-c3ccc(Cl)cc3)[nH]n2)CC1 | 6.74% |
| NC(=O)COc1ccc(/C=C2\S/C(=N\c3ccccc3)N(c3ccccc3)C2=O)cc1 | 0.812% |
| CC(O)C/N=c1\cc(O)oc2ccccc12 (stereo not drawn) | -7.3% |
| Cc1ccc2c(c1)C1CC(C)(NC(=S)N1)O2 (stereo not drawn) | -15.3% |
| CC(C)CC(C(=O)NC1CCN(Cc2ccccc2)CC1)N1Cc2ccccc2C1=O (stereo not drawn) | -2.41% |
| Cn1c(=O)c2c(ncn2CC(=O)NCc2ccccn2)n(C)c1=O | 6.12% |
| O=C(c1cccs1)c1cn(CC(=O)N2CCCCC2)c2ccccc12 | 1.62% |
| CN(C)CCN(C(=O)c1ccco1)c1nc2cc3c(cc2s1)OCO3 | -6.17% |
| CCOCc1nc(O)c2c(n1)-c1ccccc1CC21CCCC1 | 3.01% |
| CCCCCNC(=O)c1ccc(OC)c(OC)c1 | -4.68% |
| O=C(NCc1ccccc1)c1noc2c1CCCCC2 | 0.0221% |
| c1ccc(-c2cn3cccnc3n2)cc1 | 4.33% |
| CC1(C)Cc2c(sc(NC(=O)CO/N=C/c3ccccc3Cl)c2C#N)C(C)(C)N1 | -5.5% |
| CC(NC(=O)C1CCN(c2nnc(-n3cccc3)s2)CC1)C12CC3CC(CC(C3)C1)C2 (stereo not drawn) | 2.76% |
| Cn1ccnc1SCC(=O)Nc1ccccc1C(F)(F)F | -6.59% |
| CCc1ccc(-c2nc(-c3ccccc3C)no2)cc1 | 1.88% |
| NC(=O)c1cccc(N2C(=O)c3ccccc3C2=O)c1 | 5.29% |
| CCN1CCN(c2ccc(NC(=O)c3ccc(Br)o3)cc2)CC1 | -4.12% |
| Cc1ccc(C2C3CN(C)CC=C3C(C#N)=C(N)C2(C#N)C#N)c(C)c1 (stereo not drawn) | 2.8% |
| CC(C)(C)c1ccc(C2CCCCN2)cc1 (stereo not drawn) | -1.06% |

From paper PMC6919601, “Identification of Plasmodium dipeptidyl aminopeptidase allosteric inhibitors by high throughput screening” (PLoS ONE, 2019)
